The values that follow come from ChEMBL document CHEMBL5308541, “MAIP: An Open-Source Tool to Enrich High-Throughput Screening Output and Identify Novel, Druglike Molecules with Antimalarial Activity” (ACS Med Chem Lett, 2023).

Among all 150,000 compounds or so, about 540 (0.36%) showed an effect of 50% or more. The list shows a part of the results.

The test system of this experiment is Plasmodium falciparum. The experiment in a line: Primary screen in NF54 nanoGlo assay, in single point, at 2uM, 72h; a lower Z score goes with more inhibition. The format is functional, Erythrocyte. The note with it: timepoint 72 hour.
`CC(C)(C)c1ccc2oc(CNS(=O)(=O)C3CC3)nc2c1`: the % Inhibition – broadly, the change of the read-out against control, counted positive when it falls – was -3% and the Z score worked out at 0.52.
For `COc1ccc(CN(C)c2ncc(F)cn2)cc1O`, in that order: -3% and 0.57.
As to `CCN1CCC[C@@H]1CN(C/C=C/c1ccccc1OC)CC1CCN(CCOC)CC1`, the “% Inhibition” value is given as 18% and the Z score was -3.18.
Turning to `CCn1cc(-c2cc(C(F)(F)F)nc(N3CCNCC3)n2)c(C)n1`, the “% Inhibition” value is 7% and the Z score was -1.42.
In the case of `Cc1ccc(C)c(Nc2nc(N[C@H]3CCS(=O)(=O)C3)nc3nccnc23)c1`, the “% Inhibition” value is -2% and the Z score is listed as 0.26.
Take `CN(Cc1ccccc1)Cc1c(-c2ccccc2)nc2ccc(Cl)cc2c1O`: the “% Inhibition” value turned out to be 6% and the Z score is -1.24.
With `CCc1cc(NCCc2nc3cc(F)ccc3[nH]2)nc(-c2ccccn2)n1`, the “% Inhibition” value amounted to 21% and the Z score is given as -4.45.
For `COC(=O)c1ccc(F)c(S(=O)(=O)N[C@@H](CC(C)C)c2nc(-c3nc[nH]n3)no2)c1`, in that order: 1% and -0.13.
As for `Cc1nc(C)c(C(=O)N(C)C2CN(c3cnccn3)C2)s1`, the “% Inhibition” value was -8% and the Z score is 1.26.
`N#Cc1cc(NCc2cccc(C(N)=O)c2)nc2ccc(Cl)cc12`: the “% Inhibition” value is on record as -12% and the Z score came to 2.01.
On to `Nc1nc(NCc2cc3ccc(F)cc3[nH]c2=O)cc(N2CCOCC2)n1`, for which the “% Inhibition” value is -6% and the Z score worked out at 1.3.
For the compound `c1cnc(NCCNCc2c[nH]nc2-c2cc3ccccc3o2)nc1`, the “% Inhibition” value was determined as 0% and the Z score was -0.07.
As for `CC(C)c1ccc2c(c1)[C@H](NC(=O)Cc1c[nH]c3ncccc13)CCC2`, the “% Inhibition” value is recorded as -14% and the Z score amounted to 2.78.
As for `CCc1cnc(CNc2ccc(F)c(S(N)(=O)=O)c2)s1`, the “% Inhibition” value is on record as -10% and the Z score was 1.55.
In the case of `COCC[C@H]1CCCCN1C(=O)c1cccc(-c2ccc3[nH]nc(N)c3c2)c1`, the “% Inhibition” value was 4% and the Z score is reported as -0.65.
Consider `Cc1noc(-c2ccc(NC(=O)N[C@@H]3COC4(CCCCC4)C3)cc2)n1`, for which the “% Inhibition” value is on record as -11% and the Z score was found to be 1.83.
Turning to `CCNc1ccnc(N[C@@H](C)CC(C)(C)c2ccccc2)n1`, the “% Inhibition” value is listed as -12% and the Z score is listed as 2.67.
Turning to `CCc1cc(N2CCC(NCc3cccc(N4CCCC4)c3)CC2)nc(C)n1`, the “% Inhibition” value is -10% and the Z score worked out at 2.06.
`CNC(=O)[C@H]1CCN(Cc2cccc(C(=O)Nc3ccc4[nH]ncc4c3)c2)C1`: the “% Inhibition” value is reported as -7% and the Z score is on record as 1.14.
As to `Cc1cccc2c(N3CC[C@H](Oc4cccnc4N4CCCC4)C3)ncnc12`, the “% Inhibition” value was -7% and the Z score stood at 1.14.
Turning to `CN1CCN(Cc2ccc(C(=O)NCC3CCN(CC#N)CC3)cc2)CC1`, the “% Inhibition” value is on record as -10% and the Z score was found to be 1.81.
Consider `CC(C)n1cc(CNc2c(-c3nc4ccccc4[nH]3)cnn2C)cn1`, for which the “% Inhibition” value is given as 2% and the Z score was -0.38.
For `FC(F)(F)c1csc(CNc2ncnc3ccccc23)n1`, in that order: 4% and -0.76.
In the case of `Cn1c(=O)[nH]c2ncc(-c3cccc(C(=O)N4CCC(C(=O)NCCCN5CCCC5)CC4)c3)cc21`, the “% Inhibition” value is -16% and the Z score is reported as 2.44.
As to `Cc1cc(C(=O)N[C@H](c2nc(-c3nc[nH]n3)no2)C(C)(C)C)c2ccccc2n1`, the “% Inhibition” value is recorded as -3% and the Z score is given as 0.52.
Turning to `Cc1cc(C)c(CN2C[C@H]3CNC[C@H]3C2)cc1CN1CCN(C)CC1`, the “% Inhibition” value is given as 15% and the Z score was -2.98.
As for `Cc1cnc(NC2CC(=O)N3CCCCC23)nc1NC1CC(=O)N2CCCCC12` (configuration not stated), the “% Inhibition” value came out at 30% and the Z score is -5.22.
The like results for `c1ccc(CN2CCN(CCNc3cc(C4CC4)ncn3)CC2)cc1` were, in that order, 2% and -0.35.
Regarding `Cc1n[nH]c(C)c1-c1c(-c2ccccc2)ncn1Cc1cc(C(C)C)no1`, the “% Inhibition” value is given as -2% and the Z score came to 0.4.
Turning to `C[C@@H](c1cccc(-c2cnn(CCO)c2)c1)N1CCCC1`, the “% Inhibition” value was -2% and the Z score came out at 0.29.
`COCCNc1nc2c(c(N(C)Cc3cc(C)[nH]n3)n1)CCNCC2`: the “% Inhibition” value is -8% and the Z score was found to be 1.33.
On to `Cc1cc(N2CCC(NC3CCNC(c4ccccc4)C3)CC2)nc(C)n1` (configuration not stated), for which the “% Inhibition” value is on record as 30% and the Z score was -6.54.
For `C[C@H]1CC2(CCNCC2)CN1C(=O)Cn1ncn(C)c1=O`, in that order: -9% and 1.43.
For `CCOc1ccc2nc(N3CCC[C@H]3C(=O)N3CCN(c4nc(C)cnc4C)CC3)nc(C)c2c1`, the “% Inhibition” value is -10% and the Z score amounted to 1.74.
For the compound `Cc1nc(N2CCCC2)nc(NCC2(N3CCN(C)CC3)CCCC2)c1C`, the “% Inhibition” value is listed as 4% and the Z score was -0.61.
`O=C1C[C@H](CNc2nc(-c3ccccc3)nc3ccccc23)CN1C1CCCC1`: the “% Inhibition” value is given as -5% and the Z score is reported as 1.03.
In the case of `CCN(C)CC1CCN(c2nc(NCCOC)nc(N3CCC(CN(C)CC)C3)n2)C1` (configuration not stated), the “% Inhibition” value stood at 22% and the Z score is recorded as -4.3.
For the compound `CN1CCCN(CCC(=O)N2CCC3(CCNCC3)CC2)CC1`, the “% Inhibition” value is listed as 2% and the Z score was -0.3.
As for `c1cc(-c2ccc3c(c2)CCN3)n2ccnc2c1`, the “% Inhibition” value came to 3% and the Z score is recorded as -0.68.
Turning to `CS(=O)(=O)Cc1ccccc1CNC(=O)N1CCCc2n[nH]cc21`, the “% Inhibition” value is given as -4% and the Z score is on record as 0.89.
In the case of `COc1cccc(-c2nn(C(C)(C)C)cc2CNCc2cc(C)nn2C)c1`, the “% Inhibition” value is reported as -1% and the Z score amounted to 0.08.
